Assay results: ChEMBL document CHEMBL4888484, “Replenishing the malaria drug discovery pipeline: Screening and hit evaluation of the MMV Hit Generation Library 1 (HGL1) against asexual blood stage Plasmodium falciparum ,using a nano luciferase reporter read-out” (2022)
Screen size: about 150,000 compounds; about 540 (0.36%) showed an effect of 50% or more. Some of the results follow.

Test system: Plasmodium falciparum
Assay: Primary screen in NF54 nanoGlo assay, in single point, at 2uM, 72h; a lower Z score goes with more inhibition
Type: functional, Erythrocyte
Conditions: timepoint 72 hour

SMILES	% Inhibition	Z score
COC(=O)c1cc(CN2CCC(C3CCOCC3)CC2)c[nH]1	4%	-0.55
CC1CCC(C(=O)N2c3ccccc3NC(=O)CC2C)O1 (centres undefined)	33%	-3.76
COCC(=O)N(Cc1ccco1)C1(C(=O)Nc2c(C)cccc2C)CCCC1	8%	-0.85
CCCN1CCC[C@H]1CNC(=O)Nc1c(C)noc1C	1%	-0.22
CC(C)c1nccn1CC(=O)N1Cc2ncccc2N2CCC[C@H]2C1	-11%	2.19
CCC(C)(C)C(=O)N1CCC[C@H](c2cc(N3CCOCC3)nc(C)n2)C1	-21%	2.64
COCc1ncc(C)n1CC1CN(C(=O)c2ccc(OC)nc2)C1	-18%	2.43
COc1cccc(CNC(=O)C(=O)N(C)Cc2cc(C)on2)c1	-5%	0.74
COc1ccc(OC[C@@H](O)CN2CCC(O)CC2)c(CNCCCC2CCCC2)c1	11%	-1.43
CCN1CN(C(=O)CCc2c[nH]c3ccccc23)CC1=O	-5%	0.64
Cn1ccnc1CN(c1cc([C@H]2CCOC2)nc(NCCO)n1)C1CC1	-9%	1.41
C[C@]1(CO)C2CC[C@@H](O)[C@@H](CC(=O)NCc3cccs3)[C@]2(C)CC[C@H]1OC(=O)NC1CCCCC1 (some centres undefined)	16%	-1.84
Cc1c(CC(=O)NS(=O)(=O)CC2CCCCC2)cnn1C	-10%	2.02
CS(=O)(=O)NC1CCC(F)(F)CC1	-19%	2.46
COC(CNC(=O)OCC1CCCCC1)OC	-2%	0.22
CN1C(=O)CN(Cc2nc(C3CC(C)(C)CC(C)(C)C3)no2)C1=O	-2%	0.3
CC(=O)N1CCc2cc(Br)c(S(=O)(=O)NCCCN3CCCC3)cc21	-14%	1.59
O=C1C2ON(c3ccccc3)C(c3cccc4ccccc34)C2C(=O)N1c1cccc(Cl)c1 (centres undefined)	-10%	1.08
O=C(c1ncccc1Cl)N(Cc1cccnc1)Cc1ccco1	-10%	1.3
Cn1cc(C2CC2C(=O)Nc2ccc3c(c2)N(S(N)(=O)=O)CC3)cn1 (centres undefined)	-3%	0.51
COCc1nccc(N2CCC[C@H]2c2nc(-c3ccccc3)n[nH]2)n1	-8%	0.86

SMILES	% Inhibition	Z score
O=C(NCC1CN(c2ccc(C(F)(F)F)cn2)C2CCN1C2)c1cc(Cl)c[nH]1 (centres undefined)	1%	-0.2
CC(C)=CCN1C(=O)[C@@H]2CC[C@H]1CN(C(=O)c1ccc3[nH]c(C)c(C)c3c1)C2	-6%	1.04
O=S(=O)(CCNS(=O)(=O)c1c(Cl)cc(Br)cc1Cl)NC1CC1	-8%	1.45
c1ccc(-n2nc(-c3nc(-c4ccccn4)no3)nc2C2CC2)cc1	-21%	2.09
Cc1cccc2nc(CN3CCCCC3)cc(=O)n12	0%	-0.04
CCOc1cc2cnc(N3CCCCC3)cc2cc1OCC	-12%	1.68
Cc1cc(C)nc(CN(C)Cc2cc(C#N)n(C)c2)c1	-10%	1.7
O=C(NC[C@H]1Cn2cccc2C(=O)N1Cc1cccnc1)c1ccco1	-4%	0.73
Cc1cccc(C(=O)O[C@@H](C)CN2CCCC2)c1	-4%	0.48
COc1ccc(-c2cc(-c3ccccc3)nc(N3CCC(C)CC3)n2)cc1	43%	-9.15
COc1ncc(CN(C)Cc2noc(C)n2)cn1	-2%	0.27
CC(C)CNC(=NCc1cccs1)[C@H](C#N)C(=O)Nc1ccnn1C	32%	-3.61
CC1CN(C[C@@H](O)c2ccccc2)CC(c2ccsc2)O1 (some centres undefined)	-4%	0.59
COCCC(=O)NCc1cccnc1N1CCCCCCC1	-10%	0.89
CC(C)(C)n1cc(C(=O)N2CCC[C@H](n3ccnn3)C2)nn1	-6%	1.07
Cc1cc(NCc2ccnc(N3CCCCCC3)c2)nc(N)n1	-5%	0.77
CN(CCN1CCOC1=O)c1nnc(Cc2ccccc2)s1	-4%	0.79
O=C1C[C@H](c2ccncc2)c2cn(Cc3ccccc3)c3cccc(c23)N1	2%	-0.42
CCCCNC(=O)CN(C)S(=O)(=O)c1ccc2c(c1)nnn2[C@@H](C)CC	-16%	1.44
O=C(Cc1coc2c(F)c(F)ccc12)N[C@@H]1CCC[C@@H]1n1ccnc1	-12%	1.81
CCN(Cc1nc2c(cnn2C)c(=O)[nH]1)C1CCCCC1	-31%	3.63
